Test results: patent US11466066B2, “Variants of human BMP7 protein” (ELI LILLY AND COMPANY, priority 2017, dated 2022)

Tests used:
Assay type in all cases: cell-based
[1] = tested on: ADSC/ECFC co-culture stimulated with bFGF; test: FGF-driven cord formation; conditions: 100 ng/ml; 10 ng/ml bFGF; 96 hours
Description: (§1) An in vitro endothelial cord formation assay, a surrogate of angiogenesis, may be used to investigate the role of human BMP7 proteins on various growth factor established cords including, but not limited to, VEGF, basic FGF, and EGF established cords. Endothelial cord forming cells (ECFCs; passage 4-10 suitable for cord formation) may be cultured in EGM-2 MV (Lona) media containing a final concentration of 10% FBS and passaged onto type 1 collagen (fibrillar) coated flasks prior to seeding into the cord formation assay in vitro. […]
(§2) An ADSC/ECFC co-culture was unstimulated (basal) or stimulated with 10 ng/ml bFGF and treated simultaneously with PBS or 100 ng/ml human pro-BMP7 variant F9 or 100 nM sunitinib for 96 hours prior to immunohistochemistry for CD31 (green), α-smooth muscle actin (red), and Hoechst 33342 to stain all nuclei (blue). Resulting CD31-positive endothelial cords were visualized and quantitated using high content imaging. […]

[2] = tested on: ADSC/ECFC co-culture stimulated with EGF; test: EGF-driven cord formation; conditions: 100 ng/ml; 10 ng/ml EGF; 96 hours
Description: as §1
as §2, with “EGF” for “bFGF”

Follistatin = target: T1, Follistatin (Homo sapiens, UniProt P19883); test: BMP inhibitor activity, hepcidin promoter luciferase: Follistatin
T1 construct: made in house
Description: (§3) Briefly described, Hep3B2 cells stably transfected with a hepcidin promoter luciferase construct (hereinafter, referred to as Hep3B2_HepPro_luc cells) were used for BMP inhibitor experiments. Hep3B2_HepPro_luc cells may be plated at 30,000 cells per well in a tissue culture treated 96 well plate in DMEM (Hyclone) 5% FBS (Gibco) supplemented with non-essential amino acids (Hyclone) and 200 μg/ml gentecin (Hyclone) for 24 hours. Cells were then starved in OMEM+0.2% BSA for 5 hours. Cells were treated with a mixture of human BMP7 proteins and variants thereof in OMEM (Gibco)+0.2% BSA (Gibco) for 18 hours then developed for luciferase activity utilizing Luciferase reporter Gene Assay Kit (Roche). BMP7 proteins were added at concentrations in the linear range of the assay, at 1 nM and 100 pM. Inhibitors were added at various concentrations in molar excess of the particular BMP7 protein being tested. All BMP inhibitors except Follistatin were purchased from R&D Systems. Follistatin and BMP7 proteins and variants thereof were generated at Eli Lilly and Company.

Chordin-like 2 = target: T2, Chordin-like 2 (Homo sapiens, UniProt Q6WN34); test: BMP inhibitor activity, hepcidin promoter luciferase: Chordin-like 2
T2 construct: purchased R&D Systems
T2 sequence (Q6WN34 26-429): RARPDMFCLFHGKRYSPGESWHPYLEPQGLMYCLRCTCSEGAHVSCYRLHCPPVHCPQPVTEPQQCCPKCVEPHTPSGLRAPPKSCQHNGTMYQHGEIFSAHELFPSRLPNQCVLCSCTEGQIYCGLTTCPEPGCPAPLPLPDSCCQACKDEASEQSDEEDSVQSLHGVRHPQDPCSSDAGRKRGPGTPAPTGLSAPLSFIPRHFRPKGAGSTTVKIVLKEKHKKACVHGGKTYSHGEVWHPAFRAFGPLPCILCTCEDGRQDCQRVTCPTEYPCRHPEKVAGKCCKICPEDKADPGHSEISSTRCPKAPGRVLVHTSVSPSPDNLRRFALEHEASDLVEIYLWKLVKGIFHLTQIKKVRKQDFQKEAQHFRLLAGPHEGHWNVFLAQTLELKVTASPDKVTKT
Description: as §3

Noggin = target: T3, Noggin (Homo sapiens, UniProt Q13253); test: BMP inhibitor activity, hepcidin promoter luciferase: Noggin
T3 construct: purchased R&D Systems
T3 sequence (Q13253 28-232): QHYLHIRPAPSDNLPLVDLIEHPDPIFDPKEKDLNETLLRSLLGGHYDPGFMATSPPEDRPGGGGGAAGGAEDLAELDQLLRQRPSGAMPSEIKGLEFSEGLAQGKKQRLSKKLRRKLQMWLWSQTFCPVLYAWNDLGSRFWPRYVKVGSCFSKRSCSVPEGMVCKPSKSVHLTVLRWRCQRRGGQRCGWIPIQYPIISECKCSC
Description: as §3

[3] = molar excess 100X, Hep3B2_HepPro_luc cells, 18 hours

T1 sequence (P19883 30-344, species assumed): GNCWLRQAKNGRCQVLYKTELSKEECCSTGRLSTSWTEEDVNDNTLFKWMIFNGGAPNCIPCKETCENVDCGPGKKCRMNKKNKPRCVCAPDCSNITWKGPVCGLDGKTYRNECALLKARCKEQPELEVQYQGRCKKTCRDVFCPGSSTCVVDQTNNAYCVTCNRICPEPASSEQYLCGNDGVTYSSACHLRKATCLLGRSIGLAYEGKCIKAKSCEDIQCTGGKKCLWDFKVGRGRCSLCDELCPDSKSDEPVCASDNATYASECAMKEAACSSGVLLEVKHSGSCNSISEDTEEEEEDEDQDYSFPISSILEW

B1: Human pro-BMP7 Variant F9: wild type pro-domain + variant mature BMP7 F9 (402 aa), SEQ ID NO: 16 (protein)
chain: DFSLDNEVHSSFIHRRLRSQERREMQREILSILGLPHRPRPHLQGKHNSAPMFMLDLYNAMAVEEGGGPGGQGFSYPYKAVFSTQGPPLASLQDSHFLTDADMVMSFVNLVEHDKEFFHPRYHHREFRFDLSKIPEGEAVTAAEFRIYKDYIRERFDNETFRISVYQVLQEHLGRESDLFLLDSRTLWASEEGWLVFDITATSNHWVVNPRHNLGLQLSVETLDGQSINPKLAGLIGRHGPQNKQPFMVAFFKATEVHFRSIRSTGSKQRSQNRSKTPKNQEALRMANVAENSSSDQRQACKKHELYVSFRDLGWQDWIIAPEGYAAGYCEGECAFPLNSYMNATNHALVQTLVHVINPETVPKPCCAPTQLGAISVLYFDDSSNVILKKWRNMVVRACGCH
- Connected Tube Area - FGF (% PBS) [1]: 4.39 ± 2.80%
- Connected Tube Area - EGF (% PBS) [2]: 13.21 ± 2.59%
- % inhibition (Follistatin; molar excess 0.1X): −2.6%
- % inhibition (Follistatin; molar excess 1X): −4.3%
- % inhibition (Follistatin; molar excess 10X): 11.7%
- % inhibition (Follistatin; [3]): 22.5* %
- % inhibition (Chordin-like 2; Chordin-like 2, molar excess 0.1X): 3.5* %
- % inhibition (Chordin-like 2; Chordin-like 2, molar excess 1X): 2.4* %
- % inhibition (Chordin-like 2; Chordin-like 2, molar excess 10X): 8.8* %
- % inhibition (Chordin-like 2; Chordin-like 2, molar excess 100X, Hep3B2_HepPro_luc cells, 18 hours): 24.9* %
- % inhibition (Noggin; molar excess 0.1X): −15.2%
- % inhibition (Noggin; molar excess 1X): −18.3%
- % inhibition (Noggin; molar excess 10X): −23.6* %
- % inhibition (Noggin; [3]): −28.1* %

Marks after values point to notes of the source that are not given here.
